From PubChem BioAssay AID1745845 (National Center for Advancing Translational Sciences (NCATS), 2022)
In all, about 360,000 compounds went through this assay and about 2,600 (0.72%) were called active. This list was built around the results that the source calls inconclusive (neither active nor inactive); the mix of calls is not that of the screen. Calls follow the shape of the dose curve; as a rule, active = well fitted inhibition curve with a large enough effect; inconclusive = small, poorly fitted or top-dose-only effect; inactive = no such curve, though single readings can be large or run the other way. Potencies beside an inconclusive call are fits to weak or partial responses and may not hold up.

Experiment: Primary qHTS for Inhibitors of ATXN expression; also: nearly all actives have a fitted effect of over 55% in size
Conditions: HEK-293 ATXN2-luciferase reporter, luminescence, 24 h; activity change, negative = inhibition: at 57 µM (top of the series)
Method in brief: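 ATXN2-luciferase reporter cells (luciferase flanked by upstream and downstream ATXN2 gene portions) were treated 24 h at 37 °C with compounds at up to 57 uM. SteadyGlo luminescence gave expression; GF-AFC fluorescence gave viability.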
% is scaled to controls: 0 for no effect and ±100 for the full control effect; potency is read from the fitted curve at half-maximal effect; tags tell the direction and shape of the fitted curve.

Potency, inconclusive:
COC(=O)c1ccc(C(NC(=O)OCc2ccccc2)/C(F)=C/[C@@H](C)C(=O)NCc2ccc(OC)c(OC)c2)cc1 (stereo partly specified) 35.5 µM [inhibitor, single point], N#Cc1ccccc1Cn1cc(/C=C/[N+](=O)[O-])c2ccccc21 37.7 µM [inhibitor, single point], Oc1ccc(N=Nc2ccc3c(c2)OCCO3)c(O)c1 15.8 µM [inhibitor, partial curve, poor fit], Cc1cc(C)c2c(C)c(C(=O)Nc3c(C)n(C)n(-c4ccccc4)c3=O)oc2c1 28.2 µM [inhibitor, partial curve, poor fit], Cc1ccccc1-n1c(SCc2ccc(Cl)cc2)nc2[nH]ncc2c1=O 22.4 µM [inhibitor, single point], CCOC(=O)c1c(C)[nH]c(C)c1C(=O)CSc1nc2ccccc2c(=O)n1-c1ccc(F)cc1 47.4 µM [inhibitor, partial curve, poor fit], CCOc1cccc2sc(N(CCN(C)C)C(=O)/C=C/c3cccs3)nc12 28.2 µM [inhibitor, single point], COc1cccc(C(CC(=O)Nc2cccc3ccccc23)NC(=O)c2ccccc2)c1 (stereo unspecified) 35.5 µM [inhibitor, single point], Cc1sc2ncnc(SCC(=O)Nc3cccc(S(N)(=O)=O)c3)c2c1C 31.6 µM [inhibitor, partial curve, poor fit], CC(C)COc1ccc(CNC(=S)NCc2ccccc2)cc1 39.8 µM [inhibitor, partial curve, poor fit], O=C(CCl)Nc1cccc(-c2cnc3ccccc3n2)c1 39.8 µM [inhibitor, single point], CCOC(=O)N[C@@H]1CC[C@@H]2[C@@H](C1)C[C@H]1C(=O)O[C@H](C)[C@H]1[C@@H]2C=Cc1ccc(-c2cccc(F)c2)cn1 43.2 µM [inhibitor, single point], NC(=O)CC(NC(=O)c1ccccc1)c1ccc(N2CCC(Cc3ccccc3)CC2)c([N+](=O)[O-])c1 (stereo unspecified) 22.4 µM [inhibitor, partial curve, poor fit], Cc1cccc(Cn2c(C(C)(C)C)cc3cccnc32)c1 5.62 µM [inhibitor, partial curve, poor fit]

Activity change, negative = inhibition, inactive:
O=C(O)c1ccc(C[n+]2c(-c3ccccc3)csc2Nc2ccccc2)cc1 1.14%, C=CCn1c(SCCNC(C)=O)nc2cc(-c3ccccc3)sc2c1=O 14.9%
